What was measured:
[1] = biological target: aTriFlex_A; test: flow cytometry on primary human NK cells; + 10 mg/mL human IgG, 37 C
[2] = biological target: aTriFlex_A; test: flow cytometry on primary human NK cells; w/o human IgG, 37 C

B1: primary human NK cells (receptor)
chain: not shown
- Kd [1]: 0.665 µM
- Kd [2]: 0.0336 µM

Source: patent US20200109202A1 (published 2020)
